# Among all 94,000 compounds or so, about 6,200 (6.6%) were called active. The inconclusive results got no clear call from the source; some entries with a clear call stand among them for comparison. Calls come from the whole dose curve; as a rule, active = well fitted inhibition curve with a large enough effect; inconclusive = small, poorly fitted or top-dose-only effect; inactive = flat fitted curve, though single readings scatter. Potencies beside an inconclusive call are fits to weak or partial responses and may not hold up.
# Assay: Cytotoxic Profiling in HEK 293 Cell Line of Diverse Libraries Using Quantitative High-Throughput Screening; note: nearly all actives have a fitted effect of over 60% in size
# Settings: HEK 293 viability, ATP luminescence (CellTiter-Glo), 48-72 h; series mostly up to 115 µM
# Procedure, shortened: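 ATP-coupled CellTiter-Glo luminescence served as viability read-out, recorded 10 min after reagent addition at room temperature. HEK 293 cells, 250 cells/well, had been incubated with pintool-transferred compound for 48 or 72 hr at 37 degree Celsius.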
# Potency is the fitted concentration of half-maximal effect; tags give direction and shape of the fitted curve.
row,Compound,Potency
1,O=c1n(CCCN2CCN([S+](=O)([O-])c3ccccc3)CC2)nc2n1CCCC2,inactive
2,O=C([C@@H]1C[C@H](Oc2ccccc2)CN1C(=O)c1cccnc1)N1CCCC1,inactive
3,CC(C)c1noc(-c2cn(C3CCCN(C(=O)c4ccc(N(C)C)cc4)C3)nn2)n1 (stereo unspecified),"inconclusive: 89.1 µM [inhibitor, single point]"
4,O=C1CCC2(CCN1CC1CC1)CCN(S(=O)(=O)c1ccccc1F)CC2,"inconclusive: 89.1 µM [inhibitor, single point]"
5,COc1ccc(-c2cn3cc(C(=O)NCc4cccc(Cl)c4)nc3s2)cc1,"inconclusive: 89.1 µM [inhibitor, single point]"
6,OCc1cccc(-c2cc3c(cn2)CN(Cc2ccccc2)CCN3)c1,"inconclusive: 100 µM [inhibitor, partial curve]"
7,COCCNC(=O)[C@@H](C)C1CC[C@@]2(C)Cc3sc(NC(=O)CN(C)C)nc3[C@@H](C)[C@@H]2[C@H]1O (stereo partly specified),inactive
8,COc1ccc(S(=O)(=O)N2CCC(n3cnnc3-c3ccccc3)CC2)cc1,inactive
9,COc1ccc(C(=O)N2CCC(C(NC(=O)c3ccccc3Cl)C(=O)N3CCCCC3)CC2)cc1 (stereo unspecified),inactive
10,O=C(NCc1nnc2c(-c3nc(C4CC4)no3)cccn12)c1cccc2[nH]ccc12,"inconclusive: 39.8 µM [inhibitor, partial curve, poor fit]"
11,Cc1cn2nc(C(=O)NCc3ccc(Cl)cc3)cc2c(N(C)Cc2ccccc2)n1,"inconclusive: 39.8 µM [inhibitor, partial curve, poor fit]"
12,O=C(NCC1CC1)c1ccc2nnc(C3CCCC3)n2c1,inactive
13,COc1ccc(-c2nc(C(C)C)nc3c2CCN(C(=O)c2ccccc2C)CC3)cc1,"inconclusive: 50.1 µM [inhibitor, partial curve, poor fit]"
14,Cc1cccc(OC2CN(C(=O)c3ccc(CCC(C)(C)O)cc3)C2)c1,"inconclusive: 50.1 µM [inhibitor, partial curve, poor fit]"
15,CCN(Cc1ccccc1)C(=O)c1cc(-c2ccncc2)cn1Cc1ccc(C)cc1,"inconclusive: 35.5 µM [inhibitor, partial curve, poor fit]"
16,CCCCNC(=O)N1CC(C(=O)NCc2ccco2)CC(c2ccc(F)c(C)c2)C1 (stereo unspecified),"inconclusive: 89.1 µM [inhibitor, single point]"
17,Cc1nnc(-c2cc(-c3cccnc3)ccn2)n1C1CCCCC1,inactive
18,COc1ccc(-c2cccc(C(=O)N(C)C)c2)nn1,inactive
19,COc1cccc(CC(=O)NC2CCN(c3cc(-c4ccccc4)[nH]n3)CC2)c1,"inconclusive: 50.1 µM [inhibitor, partial curve, poor fit]"
20,CC1(C(=O)NCCOc2ccccc2)CCCc2cnc(Nc3cccnc3)nc21 (stereo unspecified),active: 100 µM
21,COCCN1C(=O)c2cccn2CC1CNC(=O)c1[nH]nc2c1COc1ccccc1-2 (stereo unspecified),"inconclusive: 89.1 µM [inhibitor, partial curve, poor fit]"

row,Compound,Potency
1,O=C(OCc1ccccc1)N1CCOCC12CCN(Cc1ccncc1)CC2,active: 50.1 µM
2,O=C1NN=C(c2cccnc2)C12CCN([S+](=O)([O-])c1cccc(C(F)(F)F)c1)CC2,"inconclusive: 50.1 µM [inhibitor, partial curve, poor fit]"
3,N#Cc1cccc(C(=O)NC2CCCN(c3cc(-c4ccc(Cl)cc4)[nH]n3)C2)c1 (stereo unspecified),"inconclusive: 39.8 µM [inhibitor, partial curve, poor fit]"
4,O=C(CN1C(=O)NC(c2ccccc2Cl)C2=C1COC2=O)Nc1cc(F)cc(F)c1 (stereo unspecified),"inconclusive: 50.1 µM [inhibitor, partial curve, poor fit]"
5,Cc1ccc(-c2nc(C(=O)NCc3cc(F)cc(F)c3)no2)cc1,active: 31.6 µM
6,COC(=O)[C@@H](C)NC(=O)[C@H]1CN(C(=O)c2cccnc2)CCN1C(=O)c1cccs1,inactive
7,O=S(=O)(NCC1CN(CC2CC2)CC12CCCCC2)c1ccccc1 (stereo unspecified),"inconclusive: 63.1 µM [inhibitor, partial curve, poor fit]"
8,COc1ccc(C(=O)NC2CCN(c3cc(-c4cccs4)[nH]n3)C2)cc1F (stereo unspecified),"inconclusive: 89.1 µM [inhibitor, single point]"
9,FC(F)(F)c1ccc2nc([C@H]3CCN(C4CCOCC4)C3)[nH]c2c1,"inconclusive: 126 µM [inhibitor, single point]"
10,O=C1NCc2ccccc2CC12CCN(Cc1ccc3ccccc3c1)C2 (stereo unspecified),"inconclusive: 50.1 µM [inhibitor, partial curve, poor fit]"
11,Cc1ccc(C(=O)N2CCC(C(=O)N3CCC4(CC3)CC(=O)Nc3ccccc3O4)CC2)cc1,"inconclusive: 50.1 µM [inhibitor, partial curve, poor fit]"
12,CCn1cc(CN2CCn3nnc(CCC(=O)N4CCCC4)c3C2)c2ccccc21,"inconclusive: 44.7 µM [inhibitor, partial curve, poor fit]"
13,COCC(=O)N[C@@H]1CN(C(=O)CCCc2ccccc2)CC[C@@H]1c1nc(C)no1,inactive
14,Cc1cccc(CN2C[C@@H]3C(C(=O)Nc4ccccc4)=NO[C@@H]3C2)c1,"inconclusive: 100 µM [inhibitor, partial curve]"
15,CCOC(=O)C1CCCN(C(=O)c2cn3cc(-c4cccnc4)sc3n2)C1 (stereo unspecified),inactive
16,COc1ccc(CN2CCNc3cnc(Nc4ccccc4)cc3C2)cc1O,"inconclusive: 100 µM [inhibitor, partial curve]"
17,O=C1N(c2ccccc2)c2ccccc2C12CCN([S+](=O)([O-])c1cccs1)C2 (stereo unspecified),"inconclusive: 10 µM [inhibitor, full curve, poor fit]"
18,COc1ccc(OC)c(NC(=O)CC2CCCN(c3cn[nH]c(=O)c3)C2)c1 (stereo unspecified),inactive
19,O=C(NCc1ccccc1)c1cn(C2CN(C(=O)Cc3ccccc3)C2)nn1,inactive
20,Cc1ccc(OCCC2CCN(C(=O)C(C)C)C2)cc1 (stereo unspecified),"inconclusive: 79.4 µM [inhibitor, partial curve, poor fit]"

# — PubChem BioAssay AID1345083 (National Center for Advancing Translational Sciences (NCATS), 2018)
